# Laboratory results: paper PMC4336329 (PLoS ONE, 2015)
# Out of some 310,000 compounds screened, about 14,000 (4.5%) showed an effect of 50% or more. The effect is printed as a negative number. Some of the results follow.
# Biological target: human ether-à-go-go-related gene (hERG) potassium channel (human, UniProt Q12809)
# Experiment: primary screen, population patch clamp on CHO cells stably expressing hERG
# 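Further: peak tail current of the secondary pulse compared with the same well before compound.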
# Chain of human ether-à-go-go-related gene (hERG) potassium channel (Q12809 whole entry, looked up): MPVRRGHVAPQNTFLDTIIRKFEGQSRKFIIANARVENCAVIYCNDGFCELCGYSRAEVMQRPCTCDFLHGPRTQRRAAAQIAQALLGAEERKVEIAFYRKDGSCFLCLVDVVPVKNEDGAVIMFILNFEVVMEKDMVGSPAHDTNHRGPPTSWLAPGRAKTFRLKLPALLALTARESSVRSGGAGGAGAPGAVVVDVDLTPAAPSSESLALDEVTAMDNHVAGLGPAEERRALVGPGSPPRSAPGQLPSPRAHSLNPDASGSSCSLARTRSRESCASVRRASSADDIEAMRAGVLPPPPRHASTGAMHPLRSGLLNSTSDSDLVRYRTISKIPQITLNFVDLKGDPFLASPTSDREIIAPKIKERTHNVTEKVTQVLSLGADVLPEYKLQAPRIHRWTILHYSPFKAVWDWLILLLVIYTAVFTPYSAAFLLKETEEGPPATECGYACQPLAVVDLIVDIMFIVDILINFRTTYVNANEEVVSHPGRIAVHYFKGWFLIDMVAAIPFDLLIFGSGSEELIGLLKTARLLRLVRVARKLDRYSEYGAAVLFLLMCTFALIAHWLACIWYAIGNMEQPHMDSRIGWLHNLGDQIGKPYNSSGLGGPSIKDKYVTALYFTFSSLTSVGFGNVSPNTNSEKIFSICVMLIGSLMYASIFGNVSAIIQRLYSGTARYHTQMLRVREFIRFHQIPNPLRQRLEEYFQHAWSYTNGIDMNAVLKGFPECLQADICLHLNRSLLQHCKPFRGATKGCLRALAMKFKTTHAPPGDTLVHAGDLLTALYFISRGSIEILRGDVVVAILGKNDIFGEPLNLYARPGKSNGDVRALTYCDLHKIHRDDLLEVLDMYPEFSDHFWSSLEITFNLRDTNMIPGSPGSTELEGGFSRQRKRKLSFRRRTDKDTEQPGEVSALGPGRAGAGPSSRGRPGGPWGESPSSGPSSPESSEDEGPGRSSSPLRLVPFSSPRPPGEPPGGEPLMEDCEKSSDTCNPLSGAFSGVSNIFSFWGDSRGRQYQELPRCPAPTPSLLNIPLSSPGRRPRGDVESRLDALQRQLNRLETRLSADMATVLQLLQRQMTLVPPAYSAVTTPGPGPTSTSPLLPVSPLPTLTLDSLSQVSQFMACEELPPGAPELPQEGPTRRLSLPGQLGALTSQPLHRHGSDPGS
row,SMILES,"hERG current change (%, negative = inhibition) at 10uM [%]"
1,O=C(c1ccccc1)c1ccc(N2CCN(C(=O)c3cccc(F)c3F)CC2)c(F)c1,-37.9
2,O=C(Nc1ccc(S(=O)(=O)NCc2ccco2)cc1)c1ccc2ccccc2n1,-0.235
3,COc1cccc(CN(C(=O)c2ccccc2)C2CCS(=O)(=O)C2)c1 (centres unmarked),-0.754
4,COC(=O)C(Cc1ccccc1)NC(=O)CNS(=O)(=O)c1ccc(Br)cc1 (centres unmarked),-18.9
5,CCCc1nc2sc3c(c2c(=O)n1N)CCC3,-3.93
6,C=CCN(CC=C)Cc1ccc(C(=O)OC)o1,-9.34
7,Cc1ccc(F)cc1NC(=O)Nc1cc(C(C)(C)C)nn1C,15.6
8,CSC(=NC#N)N1CCN(c2ccc([N+](=O)[O-])cc2)CC1,-77
9,CC(C)[C@H](NC(N)=O)C(=O)Nc1ccc(OCc2ccccc2)cc1,4.46
10,Cc1cccc(NC(=O)c2ccc(NCCO)c([N+](=O)[O-])c2)n1,-48.8
11,Cc1ccc(CNC(=O)C2CCCC2)cc1,8.93
12,Nc1c(C(=O)N2CCOCC2)sc2nc3c(cc12)CCCC3,10.7
13,Cc1ccc(CN2CCC(c3cc(-c4cccs4)n[nH]3)CC2)cc1,-82.1
14,COCCn1c(SCC(=O)Nc2ccc(C)cc2C)nc2c(oc3ccccc32)c1=O,-9.43
15,O=C(Nc1nc2ccc(S(=O)(=O)N3CCCCC3)cc2s1)c1ccncc1,-34.6
16,O=C(NNc1ccc(-c2csnn2)cc1)c1cc(Cl)cc(Cl)c1,8.72
17,O=C(O)c1ccc(O)cc1O,7.89
18,CCC(Oc1ccccc1)C(=O)Nc1ccccc1C(=O)N1CCOCC1 (centres unmarked),16.7
19,CC(C)(C)NC(=O)Nc1ccc(Cn2cc(C(F)(F)F)ccc2=O)cc1,4.88
20,Cc1ccc(-c2cc(C(=O)NCC3CCCO3)c3ccccc3n2)cc1C (centres unmarked),12.1
21,CC1=C(CC(=O)c2ccccc2)C(=O)c2ccccc2C1=O,4.35
22,CC(C)(C)[C@H]1C=C(C(=O)NC2CC2)O[C@@H](OCCCCO)C1,18.4

row,SMILES,"hERG current change (%, negative = inhibition) at 10uM [%]"
1,Cc1cccc(N=C2Sc3nc4c(C)c(C)ccc4cc3CN2CCN2CCOCC2)c1,17.3
2,Cc1coc2cc3oc(=O)c(CCC(=O)NCCN4CCOCC4)c(C)c3cc12,-5.47
3,CCC(Sc1nnc(C)c(=O)[nH]1)C(=O)Nc1cccc2ccccc12 (centres unmarked),10
4,CCOc1ccc(Nc2cc(=O)n(C)c(=O)n2C)cc1,-2.15
5,CC(C)(O)C#Cc1ccc(C(=O)N2CCN(c3ccc([N+](=O)[O-])cc3)CC2)cc1,-70.4
6,COc1ccc(CC(=O)NCc2n[nH]c(=S)n2-c2ccc(Br)cc2)cc1,13.4
7,O=C(NCc1ccc(Cl)cc1)C1CCC(CNc2c(N3CCOCC3)c(=O)c2=O)CC1 (centres unmarked),14.9
8,Cn1cc(CNCCN2CCCCC2=O)c(-c2cccc(Cl)c2)n1,4.48
9,NC(=O)CC(NC(=O)c1ccc(Br)cc1)c1ccc(NC2CCCCC2)c([N+](=O)[O-])c1 (centres unmarked),0.425
10,Cc1cc(NC(=O)CCC(=O)N(C(C(=O)NC(C)(C)C)c2ccccc2Cl)C(C)(C)C)no1 (centres unmarked),20.8
11,c1ccc(/N=C2\N=C(Nc3ccccn3)c3ccccc32)nc1,-9.39
12,O=C(O)CC(Cn1[nH]nnc1=S)c1ccccc1 (centres unmarked),3.18
13,COc1ccccc1N(Cc1ccccc1)S(=O)(=O)c1cccc(C(=O)Nc2ncccc2C)c1,-23.5
14,CC(=O)c1ccccc1N(C(=O)c1ccco1)C(C(=O)NC1CCCC1)c1ccc(N2CCOCC2)cc1 (centres unmarked),-4.77
15,CCN(Cc1nc(-c2ccccc2)no1)C(=O)c1ccco1,-5.78
16,Cn1nccc1C(=O)N1CCN(c2cccc(Cl)c2)CC1,11.6
17,COc1ccc(C)cc1N(CC(=O)Nc1cccnc1)S(=O)(=O)c1ccccc1,-11.6
18,CC(=O)c1c(C)nc(-c2cccc([N+](=O)[O-])c2)n1O,10.5
19,Cc1ccc(-c2csc(N3CCC[C@@H]3C(=O)NCCn3c(-c4ccncc4)nc4ccccc43)n2)cc1,-15.3
20,COc1ccc(-c2cc(C(F)(F)F)nc(SCCC(=O)N3CCCC3)n2)cc1,5.03
21,COc1cccc(NC(=O)CCS(=O)(=O)c2cccs2)c1,14
22,NS(=O)(=O)c1cccc(NC(=O)CSc2nnnn2-c2ccccc2)c1,1.12
